# According to the supplement of paper PMC8728848:
# The list shows a part of the results.
# Key:
# Test in all cases: glycan array binding signal (z-score within array); higher = stronger binding
# Details in all cases: glycan notation: IUPAC condensed, linker removed
# [1] = target: Neu5Ac(a2-3)Gal6S(b1-4)[Fuc(a1-3)]GlcNAc
# In short: (§1)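 The binding signal is a Z-score computed within each array. Data were drawn from 3228 arrays in the Consortium for Functional Glycomics database, restricted to those with a known protein sequence. Scores were averaged over arrays of the same protein sequence at different concentrations or buffers, and over linkers, and negative values can be taken as non-binding.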
# [2] = target: Neu5Ac(a2-3)GalNAc
# In short: as §1
# [3] = target: Neu5Ac(a2-3)GalNAc(b1-4)GlcNAc
# In short: as §1
# [4] = target: Neu5Ac(a2-3)[GalNAc(b1-4)]Gal(b1-4)Glc
# In short: as §1
# [5] = target: Neu5Ac(a2-3)[GalNAc(b1-4)]Gal(b1-4)GlcNAc
# In short: as §1
# [6] = target: Neu5Ac(a2-3)[GalNAc(b1-4)]Gal(b1-4)GlcNAc(b1-3)GalNAc
# In short: as §1
# [7] = target: Neu5Ac(a2-3)[Neu5Ac(a2-6)]GalNAc
# In short: as §1
# [8] = target: Neu5Ac(a2-6)Gal
# In short: as §1
# [9] = target: Neu5Ac(a2-6)Gal(b1-4)Glc
# In short: as §1
# [10] = target: Neu5Ac(a2-6)Gal(b1-4)GlcNAc
# In short: as §1
# [11] = target: Neu5Ac(a2-6)Gal(b1-4)GlcNAc(b1-2)Man(a1-3)Man(b1-4)GlcNAc(b1-4)GlcNAc
# In short: as §1
# [12] = target: Neu5Ac(a2-6)Gal(b1-4)GlcNAc(b1-2)Man(a1-3)[Gal(b1-4)GlcNAc(b1-2)Man(a1-6)]Man(b1-4)GlcNAc(b1-4)GlcNAc
# In short: as §1
# [13] = target: Neu5Ac(a2-6)Gal(b1-4)GlcNAc(b1-2)Man(a1-3)[GlcNAc(b1-2)Man(a1-6)]Man(b1-4)GlcNAc(b1-4)GlcNAc
# In short: as §1
# [14] = target: Neu5Ac(a2-6)Gal(b1-4)GlcNAc(b1-2)Man(a1-3)[GlcNAc(b1-2)Man(b1-4)GlcNAc(b1-2)Man(a1-6)]Man(b1-4)GlcNAc(b1-4)GlcNAc
# In short: as §1
# [15] = target: Neu5Ac(a2-6)Gal(b1-4)GlcNAc(b1-2)Man(a1-3)[Man(a1-6)]Man(b1-4)GlcNAc(b1-4)GlcNAc
# In short: as §1
# [16] = target: Neu5Ac(a2-6)Gal(b1-4)GlcNAc(b1-2)Man(a1-3)[Neu5Ac(a2-6)Gal(b1-4)GlcNAc(b1-2)Man(a1-6)]Man(b1-4)GlcNAc(b1-4)GlcNAc
# In short: as §1
# [17] = target: Neu5Ac(a2-6)Gal(b1-4)GlcNAc(b1-2)Man(a1-6)Man(b1-4)GlcNAc(b1-4)GlcNAc
# In short: as §1
# [18] = target: Neu5Ac(a2-6)Gal(b1-4)GlcNAc(b1-2)Man(a1-6)[Gal(b1-4)GlcNAc(b1-2)Man(a1-3)]Man(b1-4)GlcNAc(b1-4)GlcNAc
# In short: as §1
# [19] = target: Neu5Ac(a2-6)Gal(b1-4)GlcNAc(b1-2)Man(a1-6)[GlcNAc(b1-2)Man(a1-3)]Man(b1-4)GlcNAc(b1-4)GlcNAc
# In short: as §1
# [20] = target: Neu5Ac(a2-6)Gal(b1-4)GlcNAc(b1-2)Man(a1-6)[Man(a1-3)]Man(b1-4)GlcNAc(b1-4)GlcNAc
# In short: as §1
# [21] = target: Neu5Ac(a2-6)Gal(b1-4)GlcNAc(b1-3)Gal(b1-3)GlcNAc
# In short: as §1
# [22] = target: Neu5Ac(a2-6)Gal(b1-4)GlcNAc(b1-3)Gal(b1-4)GlcNAc
# In short: as §1
# [23] = target: Neu5Ac(a2-6)Gal(b1-4)GlcNAc(b1-3)Gal(b1-4)GlcNAc(b1-3)Gal(b1-4)GlcNAc
# In short: as §1
# [24] = target: Neu5Ac(a2-6)Gal(b1-4)GlcNAc(b1-3)Gal(b1-4)[Fuc(a1-3)]GlcNAc(b1-3)Gal(b1-4)[Fuc(a1-3)]GlcNAc
# In short: as §1
# [25] = target: Neu5Ac(a2-6)Gal(b1-4)GlcNAc(b1-3)GalNAc
# In short: as §1
# [26] = target: Neu5Ac(a2-6)Gal(b1-4)GlcNAc6S
# In short: as §1
# [27] = target: Neu5Ac(a2-6)GalNAc
# In short: as §1
# [28] = target: Neu5Ac(a2-6)GalNAc(b1-4)GlcNAc
# In short: as §1
# [29] = target: Neu5Ac(a2-6)GlcNAc(b1-4)GlcNAc
# In short: as §1
# [30] = target: Neu5Ac(a2-6)GlcNAc(b1-4)GlcNAc(b1-4)GlcNAc
# In short: as §1
# [31] = target: Neu5Ac(a2-8)Neu5Ac
# In short: as §1
# [32] = target: Neu5Ac(a2-8)Neu5Ac(a2-3)Gal(b1-4)Glc
# In short: as §1
# [33] = target: Neu5Ac(a2-8)Neu5Ac(a2-3)[GalNAc(b1-4)]Gal(b1-4)Glc
# In short: as §1
# [34] = target: Neu5Ac(a2-8)Neu5Ac(a2-8)Neu5Ac
# In short: as §1
# [35] = target: Neu5Ac(a2-8)Neu5Ac(a2-8)Neu5Ac(a2-3)Gal(b1-4)Glc
# In short: as §1
# [36] = target: Neu5Ac(a2-8)Neu5Ac(a2-8)Neu5Ac(a2-3)[GalNAc(b1-4)]Gal(b1-4)Glc
# In short: as §1
# [37] = target: Neu5Ac(a2-8)Neu5Ac(a2-8)Neu5Ac(a2-8)Neu5Ac(a2-3)[GalNAc(b1-4)]Gal(b1-4)Glc
# In short: as §1
# [38] = target: Neu5Ac(b2-6)Gal(b1-4)GlcNAc
# In short: as §1
# [39] = target: Neu5Ac(b2-6)GalNAc
# In short: as §1
# [40] = target: Neu5Ac9Ac(a2-3)Gal(b1-3)GlcNAc
# In short: as §1
# [41] = target: Neu5Ac9Ac(a2-3)Gal(b1-4)GlcNAc
# In short: as §1
# [42] = target: Neu5Ac9Ac(a2-6)Gal(b1-4)GlcNAc
# In short: as §1
# [43] = target: Neu5Gc(a2-3)Gal(b1-3)GlcNAc
# In short: as §1
# [44] = target: Neu5Gc(a2-3)Gal(b1-3)[Fuc(a1-4)]GlcNAc
# In short: as §1
# [45] = target: Neu5Gc(a2-3)Gal(b1-4)Glc
# In short: as §1
# [46] = target: Neu5Gc(a2-3)Gal(b1-4)GlcNAc
# In short: as §1
# [47] = target: Neu5Gc(a2-3)Gal(b1-4)[Fuc(a1-3)]GlcNAc
# In short: as §1
# [48] = target: Neu5Gc(a2-6)Gal(b1-4)GlcNAc
# In short: as §1
# [49] = target: Neu5Gc(a2-6)GalNAc
# In short: as §1
# [50] = target: Neu5Gc(b2-6)Gal(b1-4)GlcNAc
# In short: as §1
binder,measurement,setting,value
"SAG3 (Toxoplasma gondii), Q9BJ39 (protein) MQLWRRRAAGPASLGRQSLPLGCFFAAFGLCVLSAILGTGERGLFVAAGNSRRKITYFGTLTQKAPNWYRCSSTRAKEEVVGHVTLNKEHPDMTIECVDDGLGGEFLPLEGARSSYPRVCHIDAKDQDDCERNRGFLTDYIPGAKQYWYKIEKVEQNGEQSVLYKFTVPWILLPPAKQRYKVGCRYPNHEYCFVEVTVEPTPPMVEGKRVTCGYSESGPVNLEVDLSKNANFIEIRCGEQHHPQPSTYTLQYCSGDSVDPQKCSPQSLTNIFYDYSSSWWKGKLNGPDGATLTIPPGGFPEEDKSFLVGCSLTVDGPPFCNVKVRVAGNPRKWERGGGGHPGSGGLQPGTDGETQAGTGSSAGASSRMASVALAFLLGLLVHVAA",glycan array binding signal (z-score),[1],-0.144
same,glycan array binding signal (z-score),[2],-0.024
same,glycan array binding signal (z-score),[3],-0.469
same,glycan array binding signal (z-score),[4],-0.251
same,glycan array binding signal (z-score),[5],-0.264
same,glycan array binding signal (z-score),[6],-0.464
same,glycan array binding signal (z-score),[7],-0.226
same,glycan array binding signal (z-score),[8],0.496
same,glycan array binding signal (z-score),[9],-0.33
same,glycan array binding signal (z-score),[10],-0.372
same,glycan array binding signal (z-score),[11],0.385
same,glycan array binding signal (z-score),[12],-0.052
same,glycan array binding signal (z-score),[13],-0.205
same,glycan array binding signal (z-score),[14],-0.291
same,glycan array binding signal (z-score),[15],-0.12
same,glycan array binding signal (z-score),[16],-0.101
same,glycan array binding signal (z-score),[17],0.041
same,glycan array binding signal (z-score),[18],-0.419
same,glycan array binding signal (z-score),[19],-0.571
same,glycan array binding signal (z-score),[20],-0.001
same,glycan array binding signal (z-score),[21],-0.03
same,glycan array binding signal (z-score),[22],-0.143
same,glycan array binding signal (z-score),[23],-0.049
same,glycan array binding signal (z-score),[24],-0.312
same,glycan array binding signal (z-score),[25],0.144
same,glycan array binding signal (z-score),[26],-0.656
same,glycan array binding signal (z-score),[27],0.099
same,glycan array binding signal (z-score),[28],-0.434
same,glycan array binding signal (z-score),[29],0.028
same,glycan array binding signal (z-score),[30],0.34
same,glycan array binding signal (z-score),[31],-0.242
same,glycan array binding signal (z-score),[32],0.246
same,glycan array binding signal (z-score),[33],2.27
same,glycan array binding signal (z-score),[34],0.149
same,glycan array binding signal (z-score),[35],0.127
same,glycan array binding signal (z-score),[36],-0.005
same,glycan array binding signal (z-score),[37],-0.615
same,glycan array binding signal (z-score),[38],0.676
same,glycan array binding signal (z-score),[39],-0.099
same,glycan array binding signal (z-score),[40],-0.025
same,glycan array binding signal (z-score),[41],-0.479
same,glycan array binding signal (z-score),[42],0.292
same,glycan array binding signal (z-score),[43],-0.073
same,glycan array binding signal (z-score),[44],-0.083
same,glycan array binding signal (z-score),[45],1.11
same,glycan array binding signal (z-score),[46],-0.368
same,glycan array binding signal (z-score),[47],0.185
same,glycan array binding signal (z-score),[48],-0.387
same,glycan array binding signal (z-score),[49],-0.546
same,glycan array binding signal (z-score),[50],-0.305
